This passage reports self-cleavage results from the RNAGym collection of RNA variant scans (doi:10.1093/nar/gkz1192).

Read counts are not given, so values of variants with three or more changes are uncertain.

B1: CPEB3 Ribozyme (parent)
chain: UAACAGGGGGCCACAGCAGAAGCGUUCACGUCGCAGCCCCUGUCAGAUUCUGGUGAAUCUGCGAAUUCUGCUGUAUAUCUC

The variants in this data set derive from B1. In words: self-cleavage, relative activity (ratio to wild type); higher = more cleavage; in vitro, sequencing. In short, it runs like this: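 Relative activity was defined as the cleaved/total read fraction for a variant divided by the same fraction for the unmutated ribozyme. CPEB3 self-cleaving ribozyme libraries were made by rounds of error-prone PCR, barcoded, and transcribed in vitro with T7 RNA polymerase for 5 hours at 37°C, and cleavage ran through transcription plus a 15 min DNase I step before EDTA. Illumina sequencing of template-switched reverse transcripts gave the reads, and DNA sequencing mapped the barcodes. Averages come from three batches, using variants with at least 5 reads.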
Turning to A3U G7U G19A C40G U51G, the self-cleavage worked out at 0.06.
Turning to A3U C23G U31A A56G C59U A75G, the self-cleavage stood at 0.07.
Turning to A3G U48C U78C, the self-cleavage was 0.79.
For the variant A3G U41A U43C A56G U72A, the self-cleavage came to 0.03.
As to A3U A5G U25C U41C U49C G63A, the self-cleavage was found to be 0.46.
As to A3U A21G U25C U51A U72C, the self-cleavage was determined as 0.08.
With A3U A15U U31A C79A, the self-cleavage came out at 0.91.
Turning to A3U U25C U26A A35G A47G A56G, the self-cleavage worked out at 0.27.
As for A3U A15U U69C U74C U80C, the self-cleavage turned out to be 0.39.
For A3U G6A G10A A20U C44U U69C U72A the value was 0.07; for A3U G30A C59U A64U, 0.12; for A3U A5G C32U C37U U43C U76A, 0.06.
For A3U A75G U76A the value was 0.9.
On to A3U A35U C37U, for which the self-cleavage was determined as 0.36.
In the case of A3U A57G U60C U67C it was 0.22.
For A3G U31A C38U G46A A64G U80A the value was 0.13; for A3U G8U C23G A28U, 0.06.
For A3U U26A A35G A75G the value was 1.26; for A3G U26G A57U U58G, 0.11.
A3G U31C U72C: the self-cleavage turned out to be 0.45.
Turning to A3U U25C A57C, the self-cleavage came to 0.12.
In the case of A3G U54C U67C U80C it was 0.34; in that of A3U C23U A57G U58C, 0.12; in that of A3U A5C U41A U51G, 0.76.
Take A3U A15G A21G U41A U43C: the self-cleavage was 0.12.
For A3U G7A C50A the value was 0.48; for A3G U43A U80C, 1.09; for A3U A5U A28C C29U U58C U67A, 0.07.
For A3U C23U A65G A75U U80A the value was 0.59; for A3G U41G U66C, 0.23; for A3G U31A G46A U49A U72C U78A, 0.23.
For A3U G10A A21G A45G U69C A77U the value was 0.02.
As for A3G U54A U72A, the self-cleavage was determined as 1.01.
In the case of A3G U43C U49A A65C U72A, the self-cleavage was determined as 0.17.
For A3U A18C A35U U66C U67C the value was 0.32.
For A3U G16U G46C the value was 0.07; for A3G U49C U60C, 0.32; for A3U A5G A18G U76C, 0.81.
For A3G U69C U74C, the self-cleavage was 0.39.
As to A3U G7C U43A A65G U72C, the self-cleavage came out at 0.08.
As to A3U A13G U31C A64G A65U, the self-cleavage was found to be 0.23.
In the case of A3G U54C U78G it was 0.97; in that of A3U C38U U60C A65G U69C A75G, 0.19; in that of A3U A5G G7U A18G A28U A35G A65G, 0.29.
Consider A3U A21G A28G U49C U80C, for which the self-cleavage was 0.09.
In the case of A3U A21G U51C U54A U78A it was 0.68; in that of A3U A5U A15U A56U A57G, 0.52.
In the case of A3G U51A A56G A57G it was 0.4; in that of A3U A47G U66C U72A, 0.35; in that of A3U A13G C27G A56U U78C U80C, 0.05.
For A3G U41C A45G A47G U49A A56G U74A the value was 0.5; for A3U A15G C17U, 0.77.
With A3G U43G U49A, the self-cleavage was determined as 0.15.
For A3U C4U C23G U51A U72C the value was 0.15; for A3G U60A A77U, 0.52; for A3U A35G C38U U51G, 1.3.
For A3G U31C U80C the value was 0.98; for A3G U69C A77G, 0.62.
With A3G U51G A57G, the self-cleavage was determined as 0.77.
Turning to A3U A5G U26C A45G U74A, the self-cleavage came to 0.54.
For A3G U49A U51C U54C the value was 0.71; for A3U A5G A15G A18U U25A U43A U72C, 0.11.
In the case of A3G U54C A77G U78C it was 0.82; in that of A3G U43C U80C, 0.59.
Turning to A3U A28G U43A G53A U72A U74A, the self-cleavage turned out to be 0.75.
Regarding A3U A15U U25C A45G U48C G53U G61C, the self-cleavage amounted to 0.18.
With A3G U41A A56U U69C, the self-cleavage came to 0.31.
As for A3U A5U U43A U54C A56U, the self-cleavage is 0.72.
Turning to A3U U25C U54C U78A, the self-cleavage came out at 0.54.
With A3U A5G C39G U67A U76C, the self-cleavage came to 0.29.
With A3U A21U A28U U54C, the self-cleavage was found to be 0.32.
Take A3G U31C G42A C62U: the self-cleavage turned out to be 0.3.
For A3U C14U U41A A45G U49C G70A the value was 0.08; for A3U A20U U74C, 0.35.
For the variant A3U A13U U26A U58C U60A U72A, the self-cleavage stood at 0.28.
For the variant A3U U25C C40U U43C, the self-cleavage came out at 0.16.
As to A3U A20U C38A G46A, the self-cleavage was determined as 0.05.
In the case of A3U A21G U72G U78A it was 0.42; in that of A3G U26C U66C C81A, 0.43.
In the case of A3G U58C U72C it was 0.4; in that of A3U A20G A75U, 1.1.
For A3U G8U A13G A18G A64G the value was 0.07.
In the case of A3G U58A U66C, the self-cleavage was determined as 0.28.
Take A3G U43C A47G U60A U78A U80C: the self-cleavage was 0.3.
In the case of A3U A45C U51C A56G U58C G61A it was 0; in that of A3U A21G A45G U51C G63A U80A, 0.31.
Take A3U A18G U66C U69C: the self-cleavage stood at 0.39.
In the case of A3U A64G U72A it was 0.88; in that of A3G U51C U72G, 1.17; in that of A3G U51C U72A, 0.8.
For A3U U26A G33A A64G U67C U69G U78G, the self-cleavage is 0.09.
For A3G U66G A75G, the self-cleavage worked out at 0.46.
In the case of A3G U54C A64G U69A it was 0.36.
Consider A3G U54A U60A, for which the self-cleavage amounted to 0.54.
In the case of A3U C11A A21G it was 0.51; in that of A3U A5G G55U, 0.73; in that of A3U G7U A20U G22A G36A, 0.06.
In the case of A3U A56G C62U U69A A77G U80A it was 0.43; in that of A3G U41A A56C A64G U74C, 0.15.
For A3U A13G A18G U31C the value was 0.37.
On to A3G U51A U58C U66C U74A, for which the self-cleavage amounted to 0.23.
In the case of A3G U26C U60C A64G it was 0.3; in that of A3G U41A U67C A77G U78G, 0.02; in that of A3G U31C A35U, 0.5.
On to A3U A47G C71A, for which the self-cleavage amounted to 0.17.
As to A3U C27U A35U U60C U69A U74C, the self-cleavage was determined as 0.07.
For the variant A3U A13U A47G G73U, the self-cleavage was 1.22.
For A3U C40U A77G the value was 0.66.
As for A3U C38A A56G U58A U76C, the self-cleavage worked out at 0.1.
In the case of A3G U48C U60C it was 0.34; in that of A3U U25C A56U U58A U60A G73U, 0.06; in that of A3U C12A A13C U41C U54C, 1.24.
For the variant A3U A13U G19U U51A U69C, the self-cleavage was 0.18.
Take A3G U31A A35G: the self-cleavage was found to be 1.13.
Consider A3G U31A A35C, for which the self-cleavage is 0.54.
Take A3U C12U U43C A57G U69G A77U: the self-cleavage amounted to 0.32.
For A3U A28C G55A the value was 0.59.
As for A3U A13U U51A U58A, the self-cleavage stood at 0.43.
For A3U G10A A45G U58C U60A A64G U69C the value was 0.05; for A3U A13G A35G G52U, 1.15; for A3U A21G U41A U48A, 0.1.
Take A3G U58C U66C: the self-cleavage is 0.21.
Regarding A3U A20G U66C U78A, the self-cleavage came out at 0.56.
For the variant A3G U43C A57U, the self-cleavage came out at 0.35.
In the case of A3U G6A U31C A47C, the self-cleavage was 0.27.
For the variant A3U A5G C11A U58A U69A U76A, the self-cleavage was 0.2.
For A3U A20U A28G U72A A75G the value was 0.16; for A3G U26G U58A A65G A77U, 0.19.
In the case of A3U G46A G63A A65G it was 0.14; in that of A3G U49C U60C U72C, 0.21.
In the case of A3U C12U U41G U48C U54G A57C, the self-cleavage amounted to 0.06.
Take A3U G7A G36U A45G A47G U60A: the self-cleavage was 0.08.
For A3G U43C U51C U54G the value was 0.44.
For A3U A35G A47G U48A U69C the value was 0.34; for A3G U43C U60A U69C, 0.6; for A3U A15G A47G A64U, 0.16.
On to A3G U54A A56U, for which the self-cleavage was determined as 0.99.
For A3U C34A A45G, the self-cleavage was 0.47.
For A3G U26G A65G U66C U78C, the self-cleavage stood at 0.05.
In the case of A3U G36U U49C A56G, the self-cleavage was determined as 0.17.
In the case of A3U A15G U41A U51C G52A U58C U78C it was 0.24; in that of A3U C17G U26C U49A A56G, 0.08.
As for A3U A13U A18G U31C A35U U66C U69C, the self-cleavage amounted to 0.05.
For A3U A18G U48C U67C the value was 0.24; for A3U A21G U25C U31G C59U A64U, 0.09.
For A3U A18U U49C the value was 0.28.
For A3U C12U G24A A65C A77G the value was 0.09.
Regarding A3G U31A U43A A56G A64G, the self-cleavage amounted to 0.61.
For A3G U31C U48C A56U U60G A65G the value was 0.08; for A3G U31A A35G A47G U76C, 1.24; for A3G U31C A35U C40U U72A, 0.06.
In the case of A3U A13G U26C G55A it was 0.28.
For the variant A3U A20G U43C U67C U78C, the self-cleavage is 0.36.
Take A3U A21G U41A: the self-cleavage was found to be 0.04.
For A3U A20G A57G U58C the value was 0.28.
Turning to A3U G9A A35C A45C U60C U66A U74A, the self-cleavage is 0.05.
A3U C17G G24U U25G U26C: the self-cleavage was determined as 0.07.
Take A3G U49C U54C: the self-cleavage was determined as 0.82.
In the case of A3U G6A C14A A18U U76C it was 0.13.
For A3U C23G A35G U41A C44G U74C the value was 0.14; for A3U A5G C17G U26C, 0.68.
In the case of A3U C4U A47G G53A it was 1.15; in that of A3U A15G U49C U74C, 0.42; in that of A3G U43A A45G U76A, 1.05.
For the variant A3U A21G C40U, the self-cleavage came to 0.57.
As for A3G U41G A64U A65G U80C, the self-cleavage was found to be 0.17.
In the case of A3U U25C A47U U58A A75G it was 0.29.
